# Data from PubChem BioAssay AID1347073 (National Center for Advancing Translational Sciences (NCATS), 2019).
# Out of some 45,000 compounds screened, about 200 (0.44%) were called active. Roughly 7% stayed inconclusive and do not appear here. The call rests on the fitted dose curve; in most records, active means well fitted activation curve with a large enough effect; inconclusive means small, poorly fitted or top-dose-only effect; inactive means no such curve, though single readings can be large or run the other way. The list shows a part of the results.
# Experiment: qHTS of TDP-43 Inhibitors: NCGC Sytravon Library Screen; further: 0% is about no effect; nearly all actives have a fitted effect of over 55% in size
# Settings: yeast TDP-43 toxicity rescue, BacTiter-Glo growth, 24 h; series mostly up to 46.1 µM; growth rescue (activation): at the top concentration
# Procedure, shortened: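 TDP-43-expressing yeast, pregrown in raffinose, seeded at OD600 0.02 in galactose medium with compound for 24 hr at 30 deg C. Growth read by BacTiter-Glo luminescence, so rescue of toxicity appears as activation.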
row,SMILES,growth rescue (activation)
1,O=C(CN(Cc1ccccc1Cl)C(=O)CCC(=O)Nc1nccs1)NCC1CCCO1 (stereo not drawn),inactive: 17.8%
2,Cc1ccc(C)c(NC(=O)COC(=O)c2cccc3c2C(=O)c2ccccc2C3=O)c1,inactive: 3.14%
3,O=C(O)C1CCCCC1C(=O)NC(c1ccccc1)c1ccccc1 (stereo not drawn),inactive: 3.61%
4,O=[N+]([O-])c1cc(S(=O)(=O)N2CCOCC2)ccc1N1CCCC1,inactive: 8.1%
5,CN(C)c1cccc(C(=O)NCc2ccccc2Cl)c1,inactive: -9.82%
6,CC(C)Oc1ccc(CCc2nnc(SC(C)C(=O)O)n2-c2ccccc2)cc1 (stereo not drawn),inactive: 2.12%
7,CCOc1ccc(C(C(=O)NCC2CCCO2)N(Cc2cccs2)C(=O)c2snc(C(N)=O)c2N)cc1 (stereo not drawn),inactive: -4.11%
8,Cc1ccc(C)c(CN2CCC(CNC(=O)Nc3cccc(Cl)c3C)CC2)c1,inactive: 0.169%
9,c1cnc(N2CCN(Cc3ccc4c(c3)OCO4)CC2)cn1,inactive: 4.57%
10,CCN(CC)CCOc1c(C)cccc1Cl,inactive: 13.9%
11,CCCn1c(N)c(C(=O)COC(=O)COc2ccc(Cl)c(C)c2)c(=O)n(C)c1=O,inactive: 10.5%
12,CCOC(=O)c1c(NC(=O)CCN2CCOCC2)sc(C)c1-c1ccccc1,inactive: -3.01%
13,CCN(CC)CCNC(=S)Nc1ccc2nc(N3CCN(C)CC3)cc(C)c2c1,inactive: 0.837%
14,COc1ccccc1CCNC(=O)Cc1cccs1,inactive: 25.4%
15,O=C(N/N=C/c1ccccc1)c1cc(=O)[nH]c2ccccc12,inactive: -19.8%
16,COc1ccccc1-n1c(-c2ccco2)n[nH]c1=S,inactive: -16.2%
17,O=C(NCCc1ccccc1)C(c1ccc(F)cc1)N(C(=O)c1csnn1)C1CC1 (stereo not drawn),inactive: 3.75%
18,CSc1ccccc1NC(=O)CSc1nnc(Cc2ccccc2)o1,inactive: 28.8%
19,CN(C)S(=O)(=O)c1cccc(NC(=O)c2c[nH]c3ccccc23)c1,inactive: 24.3%
20,Cc1ncc([N+](=O)[O-])n1CC(=O)Nc1ccc(F)c(Cl)c1,inactive: -6.93%
21,COc1ccc(S(=O)(=O)NC(C)C(=O)NCc2cccnc2)cc1Cl (stereo not drawn),inactive: 18.9%
22,COc1ccc(C(=O)NCC(=O)Nc2ccccc2)cc1OC,inactive: -18.9%

row,SMILES,growth rescue (activation)
1,Cn1ccc(CC(=O)N2CCC(N3CCC(C(=O)N4CCCC4)CC3)CC2)c1,inactive: 22.1%
2,CCN(CC)S(=O)(=O)c1ccc(/C=C/C(=O)Nc2ccc(Br)cc2F)cc1,inactive: 11.7%
3,O=C(COc1cccc(Br)c1)Nc1ccc(Cl)c(S(=O)(=O)N2CCOCC2)c1,inactive: 26.6%
4,CSc1cccc(NC(=S)N(CCCN2CCCC2)Cc2cccn2Cc2ccc(Cl)cc2)c1,inactive: -25.9%
5,COc1ccc2c(c1)Cc1sc(NC(=O)c3ccccc3C)nc1-2,inactive: 23.6%
6,O=C(Nc1nccs1)c1cc(-c2ccncc2)nc2ccccc12,inactive: -1.98%
7,CC(=O)c1cc2c(cc1NC(=O)Cc1c(C)noc1C)OCO2,inactive: 16%
8,NS(=O)(=O)c1ccc(CCNC(=O)CSc2ccsc2[N+](=O)[O-])cc1,inactive: -4.64%
9,O=C(COc1ccc(Cl)cc1Cl)N/N=C/c1cccnc1,inactive: -17.7%
10,CN1CCN(C(=O)CCN2C(=O)/C(=C/c3cccc(Br)c3)SC2=S)CC1,inactive: -2.3%
11,Cc1[nH]c2ccccc2c1C(=O)CN1CCSCC1,inactive: -6.52%
12,CCOC(=O)c1sc(NC(=O)COC(=O)c2ccco2)nc1C,inactive: 10.9%
13,CCC(O)c1nc2ccccc2n1CCc1ccccc1 (stereo not drawn),inactive: -12.7%
14,Clc1ccc(Cl)c(OCc2cc(-c3ccccc3Cl)on2)c1,inactive: -7.43%
15,Cn1c(CNc2ccc(Br)cc2)nc2ccccc21,inactive: -14.7%
16,CC1CCN(S(=O)(=O)c2ccc(NC(=O)C3CCCCC3C(=O)O)cc2)CC1 (stereo not drawn),inactive: -2.29%
17,CCOc1ccc(/C(CCC(=O)O)=N/NC(=O)c2cccc(S(=O)(=O)Nc3ccccc3OC)c2)cc1,inactive: 5.91%
18,CC(c1nnc(SCC(=O)Nc2cc([N+](=O)[O-])ccc2F)n1Cc1ccccc1)N(C)C (stereo not drawn),inactive: -4.8%
19,Cc1ccccc1N1CC(C(=O)O)CC1=O (stereo not drawn),inactive: -4.34%
20,CCCCNC(=S)N/N=C/c1ccc(C#N)cc1,inactive: 17.2%
21,Cc1ccc(NC(=O)CCCC(=O)OC(C)C(=O)c2ccccc2)cc1 (stereo not drawn),inactive: -2.95%
22,O=C(CCCN1C(=O)/C(=C/c2cccc(Br)c2)SC1=S)Nc1cccnc1,inactive: -0.14%

row,SMILES,growth rescue (activation)
1,Cc1c(N2C(=O)C3C4C=CC(C5CC45)C3C2=O)c(=O)n(-c2ccccc2)n1C (stereo not drawn),inactive: -17.2%
2,CSc1ccc(C(=O)C2CCCN(C(=O)Cc3nonc3C)C2)cc1 (stereo not drawn),inactive: 9.77%
3,Cc1cccc(C(=O)Oc2ccccc2/C=N/NC(=O)c2ccc(NC(=O)C(C)(C)C)cc2)c1,inactive: -0.191%
4,O=C(CCn1cnc2onc(-c3ccc(F)cc3)c2c1=O)Nc1ccc(F)c(Cl)c1,inactive: 8.37%
5,Nc1ccc(S(=O)(=O)Nc2nccc(/C=C/c3ccc(Cl)cc3)n2)cc1,inactive: -8.67%
6,CCOC(=O)c1nc(C)n(-c2ccc([N+](=O)[O-])cc2)n1,inactive: -4.72%
7,CCCn1c(=O)c(C(=O)NCc2ccccc2)c(O)c2ccccc21,inactive: -3.17%
8,COCCCNC1=C(Cl)C(=O)c2ccccc2C1=O,inactive: 29.3%
9,O=C1N/C(=N\c2ccccn2)SC1Cc1ccc(Cl)cc1 (stereo not drawn),inactive: -2.81%
10,O=C(COC(=O)CN1C(=O)C2CCCCC2C1=O)Nc1cc(F)ccc1F (stereo not drawn),inactive: 19.6%
11,Nc1n[nH]c(N)c1N=Nc1ccccc1F,inactive: 7.26%
12,O=C(N/N=C/c1cccnc1)c1cc(C2CC2)nc2ccccc12,inactive: 7.1%
13,Cc1cc(C)n(CC(=O)N2CCc3ccccc32)c(=O)c1C#N,inactive: -11.8%
14,O=C(/C=C\c1ccco1)c1ccc(NC(=O)c2ccco2)cc1,inactive: 8.34%
15,CCN(Cc1ccccc1)C(=O)CN1C(=O)NC(CC)(c2ccc(F)cc2)C1=O (stereo not drawn),inactive: 9.05%
16,COc1ccc(OC)c(S(=O)(=O)N2CCCC(C(=O)N3CCCCCC3)C2)c1 (stereo not drawn),inactive: 18.3%
17,Cc1cc2oc(=O)cc(CN3CCN(S(=O)(=O)c4cccs4)CC3)c2cc1C,inactive: 10.4%
18,CCC(Sc1nccn1C)C(=O)Nc1ccc(Cl)cn1 (stereo not drawn),inactive: -7.51%
19,O=C(Cn1ccc2ccccc2c1=O)NCC(=O)N1CCCCC1,inactive: 10.3%
20,CCOc1ccc(NS(=O)(=O)c2ccc3ncsc3c2)cc1,inactive: 25.2%
21,COc1ccc(C(=O)OCC(=O)N2CCCCC2)cc1[N+](=O)[O-],inactive: 0.628%
22,CCOCCCNC(=O)C1CCCN(S(=O)(=O)c2cccc3nsnc23)C1 (stereo not drawn),inactive: 3.61%

row,SMILES,growth rescue (activation)
1,COCCn1c(-c2ccccc2)csc1=Nc1cccnc1,inactive: 6.11%
2,CC(C)NC(=O)c1ccc2c(c1)N(CC(=O)N1CCCC1)C(=O)C(C)(C)O2,inactive: -2.45%
3,CCOC(=O)c1cnc2cc(F)c(F)cc2c1N1CCOCC1,inactive: 27%
4,Cc1ccc(OCC(=O)N/N=C2/SCC(=O)N2Cc2ccccc2)cc1,inactive: -0.486%
5,CCc1cc2c(=O)n3c(nc2s1)-c1[nH]c2ccc(OC)cc2c1CC3,inactive: 4.11%
6,O=C(N/N=C\C=C\c1ccc2c(c1)OCO2)c1ccc(F)cc1,inactive: 17.3%
7,Cc1ccccc1NC(=O)Cc1nnc(SCC(=O)NC2CCCCC2)n1C,inactive: 3.92%
8,CCN(CC)S(=O)(=O)c1ccc(N2CC(C(=O)NCc3cccnc3)CC2=O)cc1 (stereo not drawn),inactive: -5%
9,O=C(Nc1ccccc1)Nc1ccccc1NS(=O)(=O)c1cccs1,inactive: 11.7%
10,Cc1cccc(N2CCN(c3ccc(N4C(=O)CCCC4=O)cc3[N+](=O)[O-])CC2C)c1 (stereo not drawn),inactive: 5.56%
11,CCN(CC)S(=O)(=O)c1cccc(-c2nnc(SCCOc3ccccc3)o2)c1,inactive: 15.5%
12,COc1cc(C(=O)OCC(=O)NC2CCCC2)cc(OC)c1OC,inactive: 2.23%
13,CNC(=S)NNC(=O)c1cccn(Cc2ccccc2)c1=O,inactive: 6.58%
14,Cc1ccc(CSC(Nc2ccc(F)cc2)=C(C#N)C#N)cc1,inactive: 14.7%
15,O=C(O)c1ccccc1NC(=S)NC(=O)c1cccc2ccccc12,inactive: 8.69%
16,COc1ccccc1C(=O)NCC(=O)OCc1ccc(Br)cc1,inactive: 2.91%
17,CCOCCCN(C(=O)c1snc(C(N)=O)c1N)C(C(=O)NC1CCCC1)c1ccc(F)cc1 (stereo not drawn),inactive: -18.9%
18,O=C(CSc1nc2ccccc2c(=O)n1-c1ccc(F)c(Cl)c1)Nc1cccc(S(=O)(=O)N2CCOCC2)c1,inactive: 5.75%
19,Cc1ccc(C(=O)NC2CCN(C(=O)Nc3ccc(F)cc3)CC2)cc1,inactive: 5.39%
20,COc1ccc(CCN2CN(S(=O)(=O)c3ccc(OC)cc3)c3nc4ccccc4nc32)cc1,inactive: 2.14%
21,COc1ccc(NC(=O)Nc2ccc([N+](=O)[O-])cc2)cn1,inactive: -22.9%
22,c1ccc(CN2CCN(c3nc(-c4ccccc4)nc4ccccc34)CC2)cc1,inactive: 26.2%

row,SMILES,growth rescue (activation)
1,COc1cc(/C=N/NC(=O)c2cccnc2)ccc1OS(=O)(=O)c1cc(C)ccc1C,inactive: 17.4%
2,CC(C)Oc1cc(NC(=O)CS(=O)(=O)CC(=O)N(C)C)c(Cl)cc1Cl,inactive: 2.69%
3,CC1(C)Cc2c(c(N3CCOCC3)nc3sc(C(=O)Nc4ccc(Cl)cc4)c(N)c23)CO1,inactive: -2.24%
4,CC(C)NC(=O)NC(=O)COC(=O)Cc1ccsc1,inactive: 11%
5,CCOC(=O)c1ccc(N/C=C/C(=O)c2ccccc2)cc1,inactive: 6.85%
6,CCN(CC)S(=O)(=O)c1cc(NC(=O)CCc2c(C)noc2C)ccc1C,inactive: 0.455%
7,Cc1ccccc1CNC(=O)Cn1c(C)c2cnn(-c3ccccc3)c(=O)c2c1C,inactive: 13.5%
8,Cc1ccccc1Cn1c(=N)n(CC(=O)c2ccco2)c2ccccc21,inactive: 1.69%
9,CCOC(=O)C1(C)CCCCCN1C(=O)/C=C/c1ccccc1 (stereo not drawn),inactive: 20.1%
10,CCOc1ccc(N2CC(C(=O)NC3CCCC3)CC2=O)cc1 (stereo not drawn),inactive: -4.75%
11,O=C(NC1CCCCC1)c1cc(S(=O)(=O)N2CCN(c3ccccc3)CC2)ccc1Cl,inactive: -1.93%
12,CC(C)C(NC(=O)c1ccccc1NC(=O)C(C)(C)C)C(=O)N1CCOCC1 (stereo not drawn),inactive: 18.7%
13,CCCC(=O)N1CCC1(C)C(=O)NS(=O)(=O)c1ccc(C(C)(C)C)cc1 (stereo not drawn),inactive: 4.47%
14,CC1(C(=O)NS(=O)(=O)C2CC2)CCCN(C(=O)c2ccccc2)C1 (stereo not drawn),inactive: 12.7%
15,Cn1c(-c2cccs2)[n+](C)c2ccccc21,inactive: -4.89%
16,CC(=O)Nc1cccc(-c2ccnc3c2CC(C(=O)NCc2ccco2)O3)c1 (stereo not drawn),inactive: 12.9%
17,O=C(Nc1ccccc1C(F)(F)F)N1CCCC(O)C1 (stereo not drawn),inactive: 26.6%
18,CCOc1ccc(N(CC(=O)NN=C2CCN(C)CC2)S(=O)(=O)c2ccc(Br)cc2)cc1,inactive: -3.75%
19,Cc1cccc(NC(=O)c2cc3c(=O)n4ccccc4nc3s2)c1,inactive: 0.575%
20,Cc1cccc(NC(=O)CC2Nc3cccc4cccc(c34)NC2=O)c1 (stereo not drawn),inactive: 1.52%
